According to PubChem BioAssay AID1346428 (National Center for Advancing Translational Sciences (NCATS), 2018):
The campaign covered roughly 48,000 compounds. About 1,200 (2.5%) were called active. About 2% were inconclusive and are not listed.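 Rule for the calls: active = activation of at least 60% and not above a set upper limit (about 1 call in 100 departs from these limits); inconclusive = activation of 40% to 60%, or above that upper limit; inactive = activation under 40%.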 This is one part of the list.

What follows are compounds tested against Probable G-protein coupled receptor 32 (Homo sapiens) (UniProt O75388) (assay: qHTS for Agonists of Human Resolvin D1 Receptor DRV1). Settings: CHO-K1 GPR32 beta-arrestin PathHunter luminescence, 90 min; at 76.9 µM; stronger effect = higher value; zero percent set by DMSO-only wells.
Outline: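 Cells are plated overnight, treated with compounds in DMSO for 90 minutes at 37 °C, and developed with PathHunter detection reagent for 1 hour before luminescence is read; signal reflects beta-arrestin binding to GPR32 in engineered CHO-K1 cells.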
Note: 0% is about no effect.

Sequence of UniProt O75388 (O75388 whole entry, looked up): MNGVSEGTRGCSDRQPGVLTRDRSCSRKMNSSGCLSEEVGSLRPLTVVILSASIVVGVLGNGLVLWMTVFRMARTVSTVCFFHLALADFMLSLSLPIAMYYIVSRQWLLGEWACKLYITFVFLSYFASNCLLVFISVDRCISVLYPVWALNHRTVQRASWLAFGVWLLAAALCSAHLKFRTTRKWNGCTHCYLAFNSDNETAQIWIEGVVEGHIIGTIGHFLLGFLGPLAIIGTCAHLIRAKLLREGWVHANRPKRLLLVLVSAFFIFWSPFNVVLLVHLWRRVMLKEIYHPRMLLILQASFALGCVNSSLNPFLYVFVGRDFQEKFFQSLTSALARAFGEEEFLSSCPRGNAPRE

activation, inactive:
COc1ccc(CNC(=O)CC2N=C3c4ccccc4N=C(SCC(=O)Nc4ccc(C(C)C)cc4)N3C2=O)cc1 (stereo not drawn) -15.9%
O=C(CSc1nnc2[nH]c(=O)cc(-c3ccccc3)n12)Nc1ccc(OC(F)(F)F)cc1 -0.0195%
COCc1cc(C)nc2sc3c(c12)NC(c1ccccc1C(=O)O)N(c1cccc(C(F)(F)F)c1)C3=O (stereo not drawn) -9.98%
COc1cc([N+](=O)[O-])ccc1NC(=O)c1nc2ccccc2n(C)c1=O -4.77%
Cc1ccc(S(=O)(=O)c2nc(-c3cccc(Br)c3)oc2N2CCCCCC2)cc1 -8.87%
CCOC(=O)C1CCN(S(=O)(=O)c2cc3c4c(c2)C(C)C(=O)N4CCC3)CC1 (stereo not drawn) -6.26%
Cc1cccc(C(=O)Nc2c(C(=O)N3CCN(c4ccc(F)cc4)CC3)oc3ccccc23)c1 -1.04%
CCN(CC)c1cc(C)c2cc(NC(=O)c3cc(OC)cc(OC)c3)ccc2n1 -3.79%
COc1cccc(N2CCN(C(=O)CCSCc3ccccc3F)CC2)c1 -20.6%
O=C(Cc1ccc(Cl)cc1)NCC(c1cccs1)S(=O)(=O)c1ccccc1 (stereo not drawn) -6.91%
CCCSc1ncc(Cl)c(C(=O)Nc2sc(C(C)=O)c(C)c2C(=O)OCC)n1 -2.97%
Cc1cc(=O)n(Cc2c(F)cccc2Cl)c2c1c(C)nn2-c1cccc(F)c1 -9.8%
COc1ccccc1C(=O)Nc1cccc(C(=O)OCc2cc(=O)n3c4c(sc3n2)CCCC4)c1 -26.2%
CCOc1ccc(NC(=O)Cn2c(=O)n(CC3CCC(C(=O)NCCc4ccccc4)CC3)c(=O)c3ccccc32)cc1 (stereo not drawn) -3.51%
COc1ccc(NC(=O)CSc2oc(-c3ccco3)nc2S(=O)(=O)c2ccc(C)cc2)c(OC)c1 -20.6%
CC(=O)Nc1ccc(NC(=O)c2cc(CN3CCCC3)on2)cc1 3.6%
Cc1ccc(C)c(NC(=O)CSc2nnc3[nH]c(=O)cc(-c4ccccc4)n23)c1 -18.3%
COc1cc(C(=O)NC(c2ccccc2Cl)c2cc(Cl)c3cccnc3c2O)cc(OC)c1OC (stereo not drawn) -62.9%
CCOC(=O)c1ccccc1NC(=O)NCc1c(-n2cccc2)sc2c1CCCC2 2.29%
CCOc1ccc(NC(=O)C(CC(C)C)N2Cc3ccccc3C2=O)cc1 (stereo not drawn) -29.4%
CC(C)(C)OC(=O)N1CCC(N2CCN(Cc3ccccc3)C(=O)C2=O)CC1 -3.63%
Cc1onc(-c2ccccc2Cl)c1C(=O)Oc1ccccc1F -10.7%
CN(C)S(=O)(=O)c1ccc2c(c1)N(CC(=O)Nc1cccc(C(F)(F)F)c1)C(=O)CS2 -0.249%
Cc1c(CNC(C)CCc2ccccc2)c(C(=O)O)c(C)n1Cc1ccc(F)cc1 (stereo not drawn) -9.64%
CC(C)c1ccc(OCC(=O)Nc2cc(-c3ccccc3)no2)cc1 33.7%
Cc1cc(C)cc(NC(=O)Cn2nc(N3CCN(c4ccccc4)CC3)ccc2=O)c1 -9.2%
CC(=O)c1c(C)n(S(=O)(=O)c2ccc(Cl)cc2)c2ccc(NS(=O)(=O)c3ccc(Cl)cc3)cc12 -8.39%
COc1cc(CN(C(=O)c2ccccc2Br)c2ccccn2)cc(OC)c1OC -0.591%
COc1ccc(S(=O)(=O)NCCc2sc(-c3cccnc3)nc2C)cc1OC -3.59%
COc1ccc2c(c1)c(=O)c(S(=O)(=O)c1ccc(Cl)cc1)cn2Cc1cc(C)ccc1C -13.7%
Cc1ccc(NC(=O)CN2C(=O)C(c3ccc(C)cc3)=NC23CCCCCC3)cc1 -15.4%
Cc1ccc(C)c(N2CCN(C(=O)CCS(=O)(=O)c3ccc4c(c3)oc(=O)n4C)CC2)c1 2.38%
CCN(CC)C(=O)c1sc2c(c1C)c(=O)n(CCc1ccccc1)c(=O)n2Cc1ccc(C)cc1 -18.3%
CCOc1cc2c(cc1OCC)C(CC(=O)OC)N(C(=O)Nc1cc(OC)ccc1OC)CC2 (stereo not drawn) -11.2%
CCOC(=O)c1ccc(N)cc1 -6.29%
CCCCNC(=O)c1cc(-c2cccnc2)nc2ccc(S(=O)(=O)NCCCC)cc12 -5.53%
CCN1CCSc2ccc(C(=O)NCc3ccc(F)cc3)cc21 4.06%
Cc1ccc(CNC(=O)CCSCc2cnn(-c3ccccc3)c2-n2cccc2)cc1 -9.2%
COc1ccc(CNC(=O)Cn2ncc3c(=O)oc4ccccc4c32)c(OC)c1 0.0161%
O=C(Cn1ncc2c3ccccc3n(Cc3ccccc3F)c2c1=O)N1CCCCCC1 -13.7%
CCN1CCN(c2nnc(-n3cccc3C(=O)NCc3ccccc3OC)s2)CC1 6.24%
Cc1ccc(NC(=O)N2CC3CCCN3c3ccccc32)cc1Cl (stereo not drawn) 8.63%
O=C(c1noc2c1CCCCC2)N1CCN(c2cccc(Cl)c2)CC1 -21.5%
Cc1ccccc1OC(=O)c1cc(-c2ccc3c(c2)OCCO3)on1 -6.59%
COc1ccc(NC(=O)C2CCN(C3=NS(=O)(=O)C(c4ccc(C)c(C)c4)=C3C)CC2)c(OC)c1 -13%
Cc1ccc(C)c(NC(=O)Cc2coc3cc(C)cc(C)c23)c1 3.63%
COc1cccc(CNC(=O)C2CCN(S(=O)(=O)c3c(C)noc3/C=C/c3cccs3)CC2)c1 -30.8%
O=C(NCCc1csc(-c2cccc(F)c2)n1)C(=O)Nc1cc(F)ccc1F -2.93%
C=CCn1c(=O)c2c(nc(-c3ccc(S(=O)(=O)O)cc3)n2C)n(C)c1=O -6.21%
COc1ccc(C)cc1NS(=O)(=O)c1cnc(N)nc1 -12.3%
O=C(c1cc2ccc3cccnc3c2[nH]1)N1CCCCC1 -15.5%
CCc1ccccc1NC(=O)Cn1nnc2sc3c(c2c1=O)CCC(C(C)(C)C)C3 (stereo not drawn) 2.6%
CCOC(=O)c1cc2c(=O)n3ccccc3nc2n(CC2CCCO2)c1=NC(=O)c1ccccc1Br (stereo not drawn) 11.9%
